From PubChem BioAssay AID1963842 (Molecular Pharmacology Branch, DTP, NCI, 2024)
Some entries of the source have several records that differ or are many. Only these are listed. An entry can have further records. The records of an entry are repeats (runs, samples, wells, individuals or studies). Brackets with × count equal records among those shown. A date in brackets names the month of the test.

Tested on: 677734-321-R-J1-PDC complex spheroid viability
Assay: Anticancer human tumor 677734-321-R-J1-PDC patient-derived soft tissue sarcoma cell line growth inhibition [POLQ]
Conditions: for viability, T/C: stronger effect = lower value; for IC50: compound alone
Procedure: Multicellular complex tumor spheroid response to Polymerase (POL) inhibitors (novobiocin, ART-558, RP6685) in combination with a variety of drugs and investigational agents in selected tumor cell lines
The POL inhibitors (novobiocin, ART-558, and RP6685) were evaluated both individually and in combination with standard of care and investigational anticancer small molecules within a complex spheroid model of solid tumors. . Complex spheroids include a stromal component modeled by human endothelial cells (HUVEC) and fibroblasts modeled by human mesenchymal stem cells (MSCs). The concentration ranges selected for each drug and investigational agent were based upon clinically achievable concentrations if the clinical Cmax of the agent was known.
Compounds. The drugs and investigational agents: novobiocin (NSC847541), ART-558 (NSC835418), RP-6685 (NSC848927), peposertib (NSC802822), ceralasertib (NSC780249), elimusertib (NSC800525), camonsertib (NSC841442), AZD-1390 (NSC803789), olaparib (NSC753686), talazoparib (NSC767125), rucaparib (NSC756644), sotorasib (NSC818433), MRTX-1133 (NSC836407), SN-38 (NSC673596), topotecan (NSC609699), epotoside (NSC141540), doxorubicin (NSC123127), gemcitabine (NSC613327), 5-fluorouracil (NSC19893), paclitaxel (NSC125973), vemurafenib (NSC761431), MSA-2 (NSC828583), SN-011 (NSC837082), adavosertib (NSC754352), prexasertib (NSC758257), carboplatin (NSC241240) and oxaliplatin (NSC266046), were obtained from the National Cancer Institute (NCI) Developmental Therapeutics Program Chemical Repository (21). The FDA-approved anticancer drug set is available from the Developmental Therapeutics Program at https://dtp.cancer.gov/organization/dscb/obtaining/. […] The stock solutions were prepared in dimethyl sulfoxide (DMSO, Sigma-Aldrich, St. Louis, MO, cat. D2650), except for the platinum compounds which were prepared in saline (Quality Biological, Gaithersburg, MD, cat. 114-055-101), at 800-fold the tested concentration and stored at -70 degrees C prior to their use. All drugs and investigational agents were tested over a range starting from a high concentration at or near the clinical Cmax and decreasing in half-log increments. If the clinical Cmax for an agent had not been determined, the highest concentration tested was 10 microM, except for SN-38, which was tested at a high concentration of 1 microM.
Cell Culture. All cells were maintained in an incubator at 37 degrees C and 5% CO2 with 95% humidity. The PDC lines were cultured according to standard operating procedures established by the NCI PDMR (https://pdmr.cancer.gov). Table 3 of the manuscript, lists the cell lines along with the number of the three cell types plated to form the mct-spheroids and media for tumor cell growth. After thawing, all PDC lines, except 997537-175-T-J1-PDC and 415267-285-R-J2-PDC, were cultured in Matrigel-coated flasks prepared with a working solution of 1X Ham's F-12 nutrient mix, without supplementation (Thermo Fisher Scientific, cat. 11765054), 100 U/mL penicillin-streptomycin (Thermo Fisher Scientific, cat. 15140122), and 2.5% Matrigel (Corning Inc., Corning, NY, cat. 354248) for the first three passages. The two PDC lines 997537-175-T-J1-PDC and 415267-285-R-J2-PDC were cultured on uncoated flasks. The 857933-349-R-J2-PDC line was cultured in 6C/Colon 1B media containing advanced DMEM/F-12 (Thermo Fisher Scientific, cat. 12634028), 10 mM HEPES (Thermo Fisher Scientific, cat. 15630080), 1X GlutaMAX supplement (Thermo Fisher Scientific, cat. 35050061), 0.1 mg/mL primocin (InvivoGen, San Diego, CA, cat. ant-pm-2), 10% defined fetal bovine serum, heat inactivated (HyClone Laboratories Inc., Logan, UT, cat. SH30070.03HI), 50% L-WRN conditioned media (ATCC, cat. CRL-3276), 1.25 mM N-Acetyl-L-cysteine (Sigma-Aldrich, cat. A9165), 10 mM nicotinamide (Sigma-Aldrich, cat. N0636), 1X B-27 supplement (Thermo Fisher Scientific, cat. 17504044), 1X N-2 supplement (Thermo Fisher Scientific, cat. […]
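Note: spheroids exposed to compounds for one week.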
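Throughout, for viability, T/C: 100% = vehicle DMSO treated spheroids.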

Row | SMILES | viability, T/C (compound alone 10 µM) | IC50 | other results
1 | Nc1ccc(C#CCN(C(=O)Cc2ncc(C(F)(F)F)cc2C(F)(F)F)c2ccc(F)cc2)nn1 | 89.1, 108, 116, 106, 118, 109, 101, 103 (4×), 104, 96.5% |  | viability, T/C (compound alone 0.0316 µM): 104, 96.6, 87.3, 92.4, 95.4, 106, 95.5, 113, 96.4, 92.1, 108, 99.5, 102%; viability, T/C (compound alone 1 µM): 91.6 (2×), 107, 103, 104, 110 (2×), 105 (2×), 115, 93.6, 117, 96.5%
2 | Cc1cccc(N(C)C(=O)C2C(O)CCN2c2nc(C)cc(C(F)(F)F)c2C#N)c1 (configuration not stated) | 104, 102 (3×), 99.5, 110, 101, 103% [2023-11] and 87.4, 80.8, 90.3 (2×), 89.4% [2023-12] |  | 
3 | O=C(c1cc(Cc2n[nH]c(=O)c3ccccc23)ccc1F)N1CCN(C(=O)C2CC2)CC1 |  | < 31.6 nM, > 10 µM [2023-11] and > 10 µM [2023-12] | 
4 | CC(C)n1c(=O)n(C)c2cnc3cc(F)c(-c4ccc(OCCCN5CCCCC5)nc4)cc3c21 |  | < 31.6 nM, > 10 µM [2023-11] and > 10 µM [2023-12] | 
5 | CC1COCCN1c1cc(-c2ccnn2C)c2ccnc(-c3ccn[nH]3)c2n1 (configuration not stated) |  |  | viability, T/C (compound alone 0.316 µM): 22.4%, 36% [2023-11] and 7.45% [2023-12]
